Among the data in PMC9911399, “Two distinct binding modes provide the RNA-binding protein RbFox with extraordinary sequence specificity” are binding signal values, retold here.

Numbering of substitutions follows the chain as printed; changes in the protein carry UniProt numbers. Some of the results follow.

First the molecules themselves.
B1: GGAAUUA (DNA:RNA)
RNA: GGGAGACCGGAAUUCAGAUUGUCCGGAAUUAUUAAAUCCCGUCGUAGCCACCA
DNA 1: CAATCTGAATTCCGGTCTCCC
DNA 2: TGGTGGCTACGACGGGATT
B2: AAGCAAC (DNA:RNA)
RNA: GGGAGACCGGAAUUCAGAUUGUCCAAGCAACUUAAAUCCCGUCGUAGCCACCA
DNA 1: CAATCTGAATTCCGGTCTCCC
DNA 2: TGGTGGCTACGACGGGATT
B3: AGUGCUU (DNA:RNA)
RNA: B1 RNA with G25A, A27U, A28G, U29C, A31U
DNA 1: CAATCTGAATTCCGGTCTCCC
DNA 2: TGGTGGCTACGACGGGATT
B4: UCAAACC (DNA:RNA)
RNA: B2 RNA with A25U, A26C, G27A, C28A, A30C
DNA 1: CAATCTGAATTCCGGTCTCCC
DNA 2: TGGTGGCTACGACGGGATT
B5: CUUACCA (DNA:RNA)
RNA: B1 RNA with G25C, G26U, A27U, U29C, U30C
DNA 1: CAATCTGAATTCCGGTCTCCC
DNA 2: TGGTGGCTACGACGGGATT
B6: UAACAGG (DNA:RNA)
RNA: B2 RNA with A25U, G27A, A30G, C31G
DNA 1: CAATCTGAATTCCGGTCTCCC
DNA 2: TGGTGGCTACGACGGGATT
B7: GCUCUAU (DNA:RNA)
RNA: B2 RNA with A25G, A26C, G27U, A29U, C31U
DNA 1: CAATCTGAATTCCGGTCTCCC
DNA 2: TGGTGGCTACGACGGGATT
B8: AUAGUAG (DNA:RNA)
RNA: B2 RNA with A26U, G27A, C28G, A29U, C31G
DNA 1: CAATCTGAATTCCGGTCTCCC
DNA 2: TGGTGGCTACGACGGGATT
B9: CGACAGG (DNA:RNA)
RNA: B2 RNA with A25C, A26G, G27A, A30G, C31G
DNA 1: CAATCTGAATTCCGGTCTCCC
DNA 2: TGGTGGCTACGACGGGATT
B10: CAAACCU (DNA:RNA)
RNA: B1 RNA with G25C, G26A, U29C, U30C, A31U
DNA 1: CAATCTGAATTCCGGTCTCCC
DNA 2: TGGTGGCTACGACGGGATT
B11: AGCGAAA (DNA:RNA)
RNA: B2 RNA with A26G, G27C, C28G, C31A
DNA 1: CAATCTGAATTCCGGTCTCCC
DNA 2: TGGTGGCTACGACGGGATT
B12: UAGACAA (DNA:RNA)
RNA: B2 RNA with A25U, C28A, A29C, C31A
DNA 1: CAATCTGAATTCCGGTCTCCC
DNA 2: TGGTGGCTACGACGGGATT
B13: ACACCGU (DNA:RNA)
RNA: B2 RNA with A26C, G27A, A29C, A30G, C31U
DNA 1: CAATCTGAATTCCGGTCTCCC
DNA 2: TGGTGGCTACGACGGGATT
B14: AUCGGUC (DNA:RNA)
RNA: B2 RNA with A26U, G27C, C28G, A29G, A30U
DNA 1: CAATCTGAATTCCGGTCTCCC
DNA 2: TGGTGGCTACGACGGGATT
B15: CUCAGUU (DNA:RNA)
RNA: B1 RNA with G25C, G26U, A27C, U29G, A31U
DNA 1: CAATCTGAATTCCGGTCTCCC
DNA 2: TGGTGGCTACGACGGGATT
B16: GAUAAUU (DNA:RNA)
RNA: B1 RNA with G26A, A27U, U29A, A31U
DNA 1: CAATCTGAATTCCGGTCTCCC
DNA 2: TGGTGGCTACGACGGGATT
B17: UCCGUAU (DNA:RNA)
RNA: B2 RNA with A25U, A26C, G27C, C28G, A29U, C31U
DNA 1: CAATCTGAATTCCGGTCTCCC
DNA 2: TGGTGGCTACGACGGGATT
B18: GAGUUCC (DNA:RNA)
RNA: B2 RNA with A25G, C28U, A29U, A30C
DNA 1: CAATCTGAATTCCGGTCTCCC
DNA 2: TGGTGGCTACGACGGGATT
B19: CAAUCUU (DNA:RNA)
RNA: B1 RNA with G25C, G26A, A28U, U29C, A31U
DNA 1: CAATCTGAATTCCGGTCTCCC
DNA 2: TGGTGGCTACGACGGGATT
B20: GGUGUUG (DNA:RNA)
RNA: B1 RNA with A27U, A28G, A31G
DNA 1: CAATCTGAATTCCGGTCTCCC
DNA 2: TGGTGGCTACGACGGGATT
B21: UUGGGGG (DNA:RNA)
RNA: B2 RNA with A25U, A26U, C28G, A29G, A30G, C31G
DNA 1: CAATCTGAATTCCGGTCTCCC
DNA 2: TGGTGGCTACGACGGGATT
B22: CGGAGUU (DNA:RNA)
RNA: B1 RNA with G25C, A27G, U29G, A31U
DNA 1: CAATCTGAATTCCGGTCTCCC
DNA 2: TGGTGGCTACGACGGGATT
B23: AAUGCAU (DNA:RNA)
RNA: B2 RNA with G27U, C28G, A29C, C31U
DNA 1: CAATCTGAATTCCGGTCTCCC
DNA 2: TGGTGGCTACGACGGGATT
B24: ACAAAUG (DNA:RNA)
RNA: B1 RNA with G25A, G26C, U29A, A31G
DNA 1: CAATCTGAATTCCGGTCTCCC
DNA 2: TGGTGGCTACGACGGGATT
B25: UAGCAUC (DNA:RNA)
RNA: B2 RNA with A25U, A30U
DNA 1: CAATCTGAATTCCGGTCTCCC
DNA 2: TGGTGGCTACGACGGGATT
B26: GGAUUCA (DNA:RNA)
RNA: B1 RNA with A28U, U30C
DNA 1: CAATCTGAATTCCGGTCTCCC
DNA 2: TGGTGGCTACGACGGGATT
B27: GUCAGGU (DNA:RNA)
RNA: B1 RNA with G26U, A27C, U29G, U30G, A31U
DNA 1: CAATCTGAATTCCGGTCTCCC
DNA 2: TGGTGGCTACGACGGGATT
B28: UGGUUUG (DNA:RNA)
RNA: B1 RNA with G25U, A27G, A28U, A31G
DNA 1: CAATCTGAATTCCGGTCTCCC
DNA 2: TGGTGGCTACGACGGGATT
B29: AGCCUAG (DNA:RNA)
RNA: B2 RNA with A26G, G27C, A29U, C31G
DNA 1: CAATCTGAATTCCGGTCTCCC
DNA 2: TGGTGGCTACGACGGGATT
B30: CAGUUGC (DNA:RNA)
RNA: B2 RNA with A25C, C28U, A29U, A30G
DNA 1: CAATCTGAATTCCGGTCTCCC
DNA 2: TGGTGGCTACGACGGGATT
B31: UCCAAAA (DNA:RNA)
RNA: B2 RNA with A25U, A26C, G27C, C28A, C31A
DNA 1: CAATCTGAATTCCGGTCTCCC
DNA 2: TGGTGGCTACGACGGGATT

The target of this experiment is T1, RBFOX1 RRM (Homo sapiens, UniProt Q9NWB1 109-208).
T1 sequence: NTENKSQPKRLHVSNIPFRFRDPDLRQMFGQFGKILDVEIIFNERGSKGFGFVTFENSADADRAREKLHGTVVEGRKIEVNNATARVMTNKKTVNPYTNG
The experiment can be described thus: EMSA; HiTS-Eq, 1 nM pool, 10 min; buffer printed only for the single-RNA assays: 10 mM Tris pH 7.5, 150 mM NaCl, 3.4 mM EDTA, 0.001% NP-40, 30 C. The settings on record: tags: His6 N-terminal (pET28a); label: 5' 32P. The method in brief: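 Purified RbFox RRM, wild type or mutant, was incubated for 10 min in 50 µL with 1 nM of a 5′-radiolabelled RNA pool carrying 7 randomized nucleotides, whose flanks were annealed to DNA oligonucleotides, over a series of increasing protein concentrations. Unbound RNA was resolved on 8% native PAGE, cut out, reverse-transcribed, barcoded by PCR and sequenced on an Illumina HiSeq 2500. Relative association constants were derived from changes in read counts for each RNA species versus the control reaction and normalised to the cognate motif.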
B1: the binding signal was 0.00812 KA relative to UGCAUGU. Under B2 stands 0.00697 KA relative to UGCAUGU.

Consider B3, for which the binding signal was 0.0147 KA relative to UGCAUGU. The same measure for B4: 0.00136 KA relative to UGCAUGU. The same measure for B5: 0.00134 KA relative to UGCAUGU; for B6: 0.00534 KA relative to UGCAUGU. The same measure for B7: 0.00678 KA relative to UGCAUGU; for B8: 0.00556 KA relative to UGCAUGU. As for B9, the binding signal is 0.0123 KA relative to UGCAUGU.

Take B10: the binding signal is 0.000969 KA relative to UGCAUGU.

Consider B11, for which the binding signal is 0.0048 KA relative to UGCAUGU.

In the case of B12, the binding signal was 0.00292 KA relative to UGCAUGU.

Consider B13, for which the binding signal was 0.00175 KA relative to UGCAUGU. Under B14 stands 0.00899 KA relative to UGCAUGU; under B15, 0.0127 KA relative to UGCAUGU.

Turning to B16, the binding signal is 0.00433 KA relative to UGCAUGU. The same measure for B17: 0.00686 KA relative to UGCAUGU; for B18: 0.0216 KA relative to UGCAUGU; for B19: 0.00142 KA relative to UGCAUGU. The same measure for B20: 0.0175 KA relative to UGCAUGU; for B21: 0.0118 KA relative to UGCAUGU. Under B22 stands 0.0257 KA relative to UGCAUGU; under B23, 0.0126 KA relative to UGCAUGU. Regarding B24, the binding signal is 0.00463 KA relative to UGCAUGU. The same measure for B25: 0.0216 KA relative to UGCAUGU; for B26: 0.0122 KA relative to UGCAUGU. The same measure for B27: 0.00934 KA relative to UGCAUGU; for B28: 0.0372 KA relative to UGCAUGU.

As for B29, the binding signal is 0.00816 KA relative to UGCAUGU. The same measure for B30: 0.012 KA relative to UGCAUGU; for B31: 0.0013 KA relative to UGCAUGU.
